# Test results published in PubChem BioAssay AID720709 (National Center for Advancing Translational Sciences (NCATS), 2013).
# Out of some 360,000 compounds screened, about 520 (0.14%) were called active. Inconclusive results, whose numbers are uncertain, are shown with a selection of clear calls. The call rests on the fitted dose curve; in most records, active means well fitted inhibition curve with a large enough effect; inconclusive means small, poorly fitted or top-dose-only effect; inactive means no such curve, though single readings can be large or run the other way. No potency is given beside an inconclusive call; the fits are too rough.
# Target: Rap guanine nucleotide exchange factor 3 (Homo sapiens) (UniProt O95398)
# Sequence of UniProt O95398 (O95398 whole entry, looked up): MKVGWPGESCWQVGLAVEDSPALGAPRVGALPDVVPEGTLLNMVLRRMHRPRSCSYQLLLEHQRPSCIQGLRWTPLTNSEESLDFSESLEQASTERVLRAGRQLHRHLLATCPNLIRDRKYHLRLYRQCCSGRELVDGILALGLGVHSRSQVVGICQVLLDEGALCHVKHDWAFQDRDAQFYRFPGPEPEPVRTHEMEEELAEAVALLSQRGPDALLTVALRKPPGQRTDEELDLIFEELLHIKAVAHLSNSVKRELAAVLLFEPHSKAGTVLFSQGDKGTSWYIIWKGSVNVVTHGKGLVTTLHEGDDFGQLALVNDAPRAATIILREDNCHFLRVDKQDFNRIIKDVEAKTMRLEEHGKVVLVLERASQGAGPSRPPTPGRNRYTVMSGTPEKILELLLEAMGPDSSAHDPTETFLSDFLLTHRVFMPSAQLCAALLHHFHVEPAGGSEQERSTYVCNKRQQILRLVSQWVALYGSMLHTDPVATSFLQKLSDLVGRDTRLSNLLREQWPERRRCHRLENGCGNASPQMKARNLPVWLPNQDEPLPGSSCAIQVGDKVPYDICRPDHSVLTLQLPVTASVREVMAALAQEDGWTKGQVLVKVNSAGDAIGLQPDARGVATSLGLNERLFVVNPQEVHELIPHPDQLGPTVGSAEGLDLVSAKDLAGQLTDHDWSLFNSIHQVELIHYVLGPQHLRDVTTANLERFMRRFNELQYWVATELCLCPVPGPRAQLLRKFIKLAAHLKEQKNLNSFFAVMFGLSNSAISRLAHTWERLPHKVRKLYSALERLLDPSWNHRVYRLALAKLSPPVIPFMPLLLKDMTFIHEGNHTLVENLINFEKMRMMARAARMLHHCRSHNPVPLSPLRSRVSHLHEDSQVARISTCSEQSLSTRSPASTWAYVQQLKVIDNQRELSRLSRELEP
# Experiment: qHTS for Antagonist of cAMP-regulated guanine nucleotide exchange factor 3 (EPAC1): primary screen; further: nearly all actives have a fitted effect of over 50% in size;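 on activity change, negative = inhibition: plate controls were vehicle for no effect and positive control for full effect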
# Details: EPAC1 GEF assay, Rap1b-BODIPY-GDP exchange fluorescence; activity change, negative = inhibition: at 115 µM (top of the series)
# Potency means the concentration at half of the fitted maximal effect; tags describe the fitted curve by direction and shape.
Structure (SMILES),Potency,"activity change, negative = inhibition"
COC(=O)C1C(=O)c2c([nH]c(C(=O)OCCSC)c2C)CC1C (stereo unspecified),"inconclusive [inhibitor, single point]",–
Cc1cccc(C)c1OCc1nc2ccccc2[nH]1,–,inactive: -21.1%
Cc1ccc(OCC(=O)Nc2ccc3oc(=O)ccc3c2)cc1C,"inconclusive [inhibitor, full curve, poor fit]",–
Cc1ccc(NC(=O)C2CCCN2S(=O)(=O)c2ccc(-c3ccc(=O)[nH]n3)s2)c(C)c1 (stereo unspecified),"inconclusive [inhibitor, full curve, poor fit]",–
COc1ccc(CCNC(=O)CC2SC(N)=NC2=O)cc1OC (stereo unspecified),"inconclusive [inhibitor, single point]",–
CCCCOc1cccc(C2C(C(=O)c3ccc(C)o3)=C(O)C(=O)N2c2nnc(C)s2)c1 (stereo unspecified),"inconclusive [inhibitor, partial curve, poor fit]",–
NC(=O)c1c(NC(=O)c2cccs2)sc2c1CCCCCC2,–,inactive: -11.8%
Cc1ccc([C@@H]2CC=C(C(=O)O)[C@H](c3ccc(Br)cc3)N2S(=O)(=O)c2ccccc2C)cc1,"inconclusive [inhibitor, partial curve]",–
CCCCCCCCn1cnc2c(N)c(C)c(C)cc21,"inconclusive [inhibitor, partial curve]",–
CCOc1ccccc1NC(=O)NNC(=O)CCc1ccc(OC)cc1,"inconclusive [inhibitor, partial curve]",–
COc1ccccc1-n1c(SCc2cc(=O)oc3cc(O)ccc23)nc2ccccc2c1=O,"inconclusive [inhibitor, single point]",–
Cn1c(-[n+]2c(-c3ccccc3)cc(-c3ccccc3)cc2-c2ccccc2)nc2c([N+](=O)[O-])cccc21,"inconclusive [inhibitor, full curve, poor fit]",–
CCN(CC)S(=O)(=O)c1ccc(NC(=S)NC(=O)CC(C)C)cc1,–,inactive: -5.42%
O=C(O)c1cc(Br)ccn1,"inconclusive [inhibitor, single point]",–
CCOc1ccc(Nc2nc(NCC(=O)O)nc(N)c2[N+](=O)[O-])cc1,"inconclusive [inhibitor, single point]",–
CN(C(=O)c1cccc(NC(=O)Cc2cccc(NC(=O)C3CCCN(C(=O)C4CC4)C3)c2)c1)C1CC1 (stereo unspecified),"inconclusive [inhibitor, partial curve, poor fit]",–
O=C(COc1ncnc2ccccc12)Nc1ccc(Cl)c(S(=O)(=O)N2CCOCC2)c1,"inconclusive [inhibitor, full curve, poor fit]",–
CCOc1ccc(/C=C2\SC(=S)N(NS(=O)(=O)c3ccc(C)cc3)C2=O)cc1OC,"inconclusive [inhibitor, full curve, poor fit]",–
CCOC(=O)C1=CN(Cc2cccc(F)c2)S(=O)(=O)N(CC)C1c1ccc2ccccc2c1 (stereo unspecified),"inconclusive [inhibitor, full curve, poor fit]",–
CN(C)C(=O)CNC(=O)CN1C(=O)NC2(CCCc3sccc32)C1=O (stereo unspecified),–,inactive: -4.72%
C=CCN1C(=O)/C(=C/c2ccc(OC(C)=O)c(OCC)c2[N+](=O)[O-])SC1=S,active: 70.8 µM,–
O=C(N/N=C1\CC(c2ccccc2)Oc2ccccc21)c1ccc(O)cc1 (stereo unspecified),"inconclusive [inhibitor, partial curve, poor fit]",–

Structure (SMILES),Potency,"activity change, negative = inhibition"
CN(C)S(=O)(=O)c1cccc(N=C2NN=C(c3ccccc3)CS2)c1,"inconclusive [inhibitor, partial curve, poor fit]",–
O=c1oc2ccccc2c(NC(c2ccccc2)c2ccccc2)c1[N+](=O)[O-],–,inactive: -4.77%
Cc1cccc(N=C2NC(=O)/C(=C/C=C/c3ccco3)S2)c1C,"inconclusive [inhibitor, partial curve]",–
CC1=NN(C(=O)COc2ccc(C)c(C)c2)C(O)(c2ccc(Cl)cc2)C1 (stereo unspecified),"inconclusive [inhibitor, full curve, poor fit]",–
Cc1ccc(NC(=O)c2c(-c3c(F)cccc3Cl)noc2C)cc1F,"inconclusive [inhibitor, full curve, poor fit]",–
COC1=CC(=O)C(C2CC(=O)c3c(O)cc(O)cc3O2)=CC1=O (stereo unspecified),"inconclusive [inhibitor, single point]",–
CCN(CC)S(=O)(=O)c1ccc(N/N=C/c2ccccc2OCC(=O)O)c([N+](=O)[O-])c1,"inconclusive [inhibitor, partial curve]",–
CC(CCc1ccccc1)NC(=O)C1CCN(C(=O)c2sccc2-n2cccc2)CC1 (stereo unspecified),"inconclusive [inhibitor, single point]",–
O=C(CSc1nc2ccccc2n1CCc1ccccc1)c1ccc(O)c(O)c1,"inconclusive [inhibitor, partial curve]",–
CC(C)(C)c1ccc(-c2nnc(SCC(=O)NC3CC3)o2)cc1,"inconclusive [inhibitor, single point]",–
Cc1ccc(OCC(=O)OC(C)CN(C)Cc2ccccc2)cc1 (stereo unspecified),"inconclusive [inhibitor, single point]",–
Cc1cc(N2CCOCC2)nc2cc(O)ccc12,–,inactive: 10.2%
CC(=O)Cc1cc(O)c2ccccc2c1OC(=O)c1ccc(Br)cc1,–,inactive: 8.08%
Cc1c(C(=O)Nc2ccccc2)cnn1-c1ccccc1,–,inactive: -13.4%
CCCn1nc([N+](=O)[O-])c(C(C#N)c2nc3ccccc3s2)c(Cl)c1=O (stereo unspecified),"inconclusive [inhibitor, partial curve]",–
O=C(CSc1nc2ccccc2[nH]1)Nc1ccc2c(c1)OCCO2,–,inactive: 0.599%
Cn1c(=O)c(NC2CCCCC2)c2c3c(cccc31)C(=O)c1ccccc1-2,–,inactive: 43.3%
Cc1cc(=O)n2c(sc3ccccc32)c1C#N,"inconclusive [inhibitor, single point]",–
COC(=O)c1ccc(CSc2nnc(NC(=O)C3CC(=O)N(c4ccc5c(c4)OCCO5)C3)s2)cc1 (stereo unspecified),"inconclusive [inhibitor, partial curve]",–
CC(C(=O)Nc1ccc(C#N)cc1)N(C)CC(=O)Nc1cccc(F)c1 (stereo unspecified),"inconclusive [inhibitor, partial curve, poor fit]",–
N#CC(C#N)=C1c2cc(S(=O)(=O)NCCO)ccc2-c2ccc(S(=O)(=O)NCCO)cc21,–,inactive: -6%
COc1ccc(-n2c(=O)c3c4c(sc3n(CC(=O)NC3CCCC3)c2=O)CCCC4)c(OC)c1,"inconclusive [inhibitor, single point]",–

Structure (SMILES),Potency,"activity change, negative = inhibition"
C=CCSc1nc2ccccc2n2cnnc12,"inconclusive [inhibitor, single point]",–
O=C(N/N=C/c1cc(Br)c(O)c(Br)c1O)c1cccnc1,"inconclusive [inhibitor, full curve, poor fit]",–
Cc1cccn2c(NCc3ccc4c(c3)OCO4)c(-c3ccc(O)cc3)nc12,–,inactive: 11.2%
COc1cc(/C=N/OCC(=O)Nc2cc(C)cc(C)c2)ccc1OCc1ccc(Cl)cc1,"inconclusive [inhibitor, single point]",–
CN(C)c1cccc(NC(=O)C2Cc3c(-c4cccnc4)ccnc3O2)c1 (stereo unspecified),"inconclusive [inhibitor, partial curve]",–
Cn1c(SCc2ccccc2)nnc1-c1cccs1,–,inactive: -4.87%
O=C(NCc1ccco1)c1cnn2c1NC(c1ccccc1)CC2C(F)(F)F (stereo unspecified),–,inactive: -3.14%
COc1cccc(/C=N/NC(=O)C(=O)NCc2cccnc2)c1OC,"inconclusive [inhibitor, full curve, poor fit]",–
O=C1CSC(=Nc2ccccc2)N1Cc1ccccc1,"inconclusive [inhibitor, single point]",–
COc1c(C)cc(Br)cc1C(=O)Nc1cccc(-c2nc3ncccc3o2)c1,"inconclusive [inhibitor, partial curve]",–
CCCOc1ccc(C(=O)O/N=C(\CC)c2ccc(C)cc2)cc1,"inconclusive [inhibitor, partial curve]",–
O=[N+]([O-])c1ccccc1S(=O)(=O)N1CCN(CC2CC=CCC2)CC1 (stereo unspecified),"inconclusive [inhibitor, partial curve, poor fit]",–
Cc1cc(C)c(S(=O)(=O)NCc2cn3c(C)csc3n2)cc1C,"inconclusive [inhibitor, partial curve]",–
CSc1nc2ncc(-c3ccsc3)c(N)n2n1,"inconclusive [inhibitor, single point]",–
O=[N+]([O-])c1cc(-c2nnc(Nc3ccccc3)c3ccccc23)ccc1N1CCOCC1,"inconclusive [inhibitor, full curve]",–
O=C1NC(=O)C(=Cc2ccc(Cl)cc2Cl)S1,"inconclusive [inhibitor, single point]",–
CCOc1ccc(S(=O)(=O)N2CCCCC2)cc1NC(=O)c1ccccc1,"inconclusive [inhibitor, single point]",–
Oc1c(Br)cc(Cl)cc1C=Nc1ccc(N2CCOCC2)cc1,"inconclusive [inhibitor, partial curve]",–
Cc1cc(NC(=O)CCCN2C(=O)c3cccnc3C2=O)ccc1Br,–,inactive: 1.35%
O=C(NCc1ccc2c(c1)OCO2)c1cc2c(s1)CSC2,"inconclusive [inhibitor, single point]",–
CC(C)Oc1ccc(C(=O)NCc2cccs2)cc1,–,inactive: -2.31%
C[C@@H]1CC=C[C@@H]2[C@H]1C(=O)N(Cc1ccccc1)[C@H]2c1cccc(Br)c1,–,inactive: -0.395%
